We go through 60 compounds from PubChem BioAssay (NCI).

Each structure is given as a SMILES string. “And” between values parts separate entries of the source, which are not always exact repeats. Identical values can stand only once.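 In this assay, cells in 96-well plates receive the compound at five concentrations for 48 hours. Endpoints are linearly interpolated between the surrounding concentrations. Here, GI50 denotes the concentration required for 50% inhibition of growth. TGI: total growth inhibition.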

The assay deals with NCI-H322M lung. The assay is described as follows: growth of human tumour cells (NCI), 48 h.
`NS(=O)(=O)c1ccc(NC(=O)N/N=C/c2ccccc2[N+](=O)[O-])cc1` yielded a TGI above 100 µM. `CCOC(=O)C1(C(=O)OCC)C(C(C)(C)C)=C(C)c2ccccc21` yielded a TGI of 54.3 µM. On the same count and under the same terms, with `Cn1c(-c2ccc(C=O)o2)ccc1-c1ccc(C=O)o1` the figure was above 100 µM.

With `COc1cc(CCC[P+](c2ccccc2)(c2ccccc2)c2ccccc2)c(OC)c2c1OCO2`, the GI50 is 3.18 µM and the TGI turned out to be 29.1 µM. In the case of `NCCCCC(NC(=O)C(N)CCCN=C(N)N)C(=O)NC(CCCCN)C(=O)NC(CCCN=C(N)N)C(=O)NC(CCCN=C(N)N)C(=O)NC(CCC(N)=O)C(=O)NC(CCCN=C(N)N)C(=O)NC(CCCN=C(N)N)C(=O)NC(CCCN=C(N)N)C(=O)NCC(=O)NCC(=O)O` (stereo unspecified), the GI50 was above 50 µM and the TGI is above 50 µM. Consider `Cc1c(CN2CCN(C(=O)[C@H](C)O)CC2)sc2c(N3CCOCC3)nc(-c3cnc(N)nc3)nc12`, for which the GI50 was 0.353 µM and 0.233 µM; the TGI was 4.33 µM and 3.74 µM. `O=c1[nH]c(Nc2ccc(Br)c(C(F)(F)F)c2)nc2nc[nH]c12` gave a TGI above 100 µM. As for `Cc1cc2c(F)c(Oc3ncnc(Nc4ccc(N5C[C@@H](C)N[C@@H](C)C5)cc4)c3C#N)cc(F)c2[nH]1`, the GI50 was 2.66 µM and the TGI turned out to be 9.65 µM. Turning to `Nc1ncc(-c2ccc3ncnc(Nc4cccc(Cl)c4)c3c2)cn1`, the GI50 was 0.123 µM and the TGI was above 100 µM. Compound `CO/C=C(/C(=O)OC)[C@@H]1C[C@@H]1c1ccc2ccccc2c1` registered a TGI above 100 µM. For the compound `COC(=O)c1cc2c(c(C(=O)OC)c1)CCC2`, the TGI is above 100 µM. The same measure, in the same setting: with `O=C(OC1=CCN(Br)C1=O)C1=C(O)C(=O)N(Br)C1` the figure was above 100 µM; with `Cc1ccc(/C=C/C(=O)c2ccc(Cl)c(Cl)c2)cc1`, above 100 µM. `COc1ccc(-c2ncnc3c2ncn3CC#CCCl)cc1`: the GI50 is 12.5 µM and the TGI was found to be 25.6 µM. With `COc1ccc(Br)cc1NC(=O)Nc1cccc2c1ccn2Cc1ccnc(N)c1`, the GI50 is 11.3 µM and 9.88 µM; the TGI was 45.5 µM and > 10 µM. For `FC1(F)ON2CCc3ccccc3C2[C@H]1c1ccccc1` (stereo partly specified), the GI50 is above 100 µM and the TGI is above 100 µM. In the case of `COc1c2c(c3c(c1OC)c(=O)c1ccccc1n3C)OCO2`, the TGI was above 100 µM. Turning to `CCOC(=O)c1c(O)cn2c1[nH]c1cccc3cccc2c31`, the TGI was above 100 µM. As to `CCC[CH2][Sn](=[O])[CH2]CCC`, the GI50 was above 50 µM and the TGI was above 50 µM. In the case of `O=S(=O)(O)c1ccc(N=Nc2ccccc2)cc1`, the TGI is above 100 µM. The same measure, in the same setting: as for `CC(C)(C)C(=O)N1C(C(=O)O)Cc2ccccc2[C@@H]1Cc1ccccc1` (stereo partly specified), the figure is above 100 µM; as for `Cc1nc2c(c(N3CCN(C)CC3)n1)Cc1ccccc1-2`, above 100 µM. Regarding `COC(=O)C1=CO[C@@H](C)[C@@H]2Cn3ccc4c5ccccc5nc-4c3C[C@H]12`, the TGI is above 100 µM. In turn, `COc1ccc(/C=C2\N=C(N3CCCC(CO)C3)NC2=O)cc1` (stereo unspecified) gave a TGI above 100 µM. On the same count and under the same terms, as for `CC(C)(C)c1cc(/C=C(\C#N)C2=NCCO2)cc(C(C)(C)C)c1O`, the figure is 10.6 µM. `CN1C(=O)CCC(N2C(=O)c3cccc(NCCOCCOCCNC(=O)c4cc5c(o4)C(=O)c4ccccc4C5=O)c3C2=O)C1=O` (stereo unspecified): the GI50 is 1.45 µM and the TGI amounted to 2.78 µM.

As for `COc1ccc(NC(=O)Oc2ccc3c(C)cc(=O)oc3c2)c(OC)c1` (tested in a mixture with another compound), the TGI is above 100 µM. In turn, `CCn1c(SCC(=O)N/N=C2\SCC(=O)N2c2ccc(C)cc2)nc2ccccc2c1=O` returned a TGI of 33.5 µM. For `CC(C)(C)OC(=O)C1C(=O)NC(=O)CC1CC(OCc1ccccc1)C(OCc1ccccc1)C(COCc1ccccc1)OCc1ccccc1` (stereo unspecified), the GI50 is > 100 µM and 49.5 µM; the TGI is above 100 µM.

Compound `Cc1nc(-c2ccccc2)cn2c1nc1ccccc12` displayed a TGI of 91.6 µM.

Turning to `CC(C)(C)C1=C(Br)C(F)(C(C)(C)C)OP1(=O)c1ccccc1` (stereo unspecified), the TGI stood at 37.3 µM.

As for `CCN1CCN(CCNc2nccc(-c3c(-c4ccc(F)c(O)c4)nc4occn34)n2)S1(=O)=O`, the GI50 was above 100 µM and the TGI is above 100 µM. On to `COc1ccc(/C=C/c2cc(OC)c(OC(C)=O)c(OC)c2)cc1`, for which the TGI is above 100 µM. Same read-out and setting: with `O=C1Nc2c(Cl)cc(Cl)cc2/C1=N/N=C/c1ccco1` the figure was above 100 µM; with `COc1ccc(CCN2CCN(CCCc3ccccc3)CC2)cc1`, above 100 µM. Still for that read-out and setting: as for `COC(=O)c1ccc(NCc2cc(OC)ccc2OC)cc1`, the figure is above 100 µM. `Cc1cn(C2CC(n3cc(Cn4ccc(=O)[nH]c4=O)nn3)C(CO)O2)c(=O)[nH]c1=O` (stereo unspecified) came in with a TGI above 100 µM. Regarding `O=C1C2CCN(CC2)C1CN1CCOCC1` (stereo unspecified), the TGI was determined as 30.2 µM. The same measure, in the same setting: as for `CN(C)Cc1cc(Cl)c(O)c(CN(C)C)c1`, the figure is above 100 µM. Take `Fc1cccc(COc2ccc(Nc3ncnc4onc(-c5ccccc5)c34)cc2)c1`: the GI50 was 0.441 µM and the TGI is above 100 µM. Compound `COc1ccc(C2SCC(=O)N2c2ccc(-n3c(-c4ccccc4)nc4ccccc4c3=O)cc2)cc1` (stereo unspecified) had a TGI above 100 µM. On the same count and under the same terms, as for `CCOP(=O)(OCC)Oc1c(OC)c2[nH]c(C(=O)OC)cc2c2c(C(=O)O)c[nH]c12`, the figure is above 100 µM; as for `NC(=O)CC1OC(=O)Cc2cc3c(c(O)c21)C(=O)c1c(O)cccc1C3=O` (stereo unspecified), above 100 µM. In the case of `CCOC(=O)c1[nH]c2cc(Cl)ccc2c1[C@@H](C(=O)NC(C)(C)C)N(CC)C(=O)CCCCC#Cc1cccc2c1CN(C1CCC(=O)NC1=O)C2=O` (stereo partly specified), the GI50 was below 0.0296 µM and the TGI was above 48.6 µM.

Take `CC1=C([Te]c2ccccc2)C(=O)c2ccccc2C1=O`: the GI50 is 0.388 µM and the TGI came to 2.88 µM.

Turning to `O=C(c1c(F)c(F)c(F)c(F)c1F)c1c(F)c(F)c(F)c(F)c1F`, the TGI came out at 11.2 µM. With `CC1OC(OC2C(O)COC(OC3C(C)OC(OC4C(OC(=O)[C@]56CCC(C)(C)C[C@@H]5C5=CCC7[C@@]8(C)C[C@H](O)[C@H](OC9OC(CO)C(O)C(O)C9O)[C@@](C)(CO)[C@@H]8CC[C@@]7(C)[C@]5(C)CC6)OCC(O)C4O)C(O)C3O)C2O)C(O)C(O)C1O` (stereo partly specified), the TGI is 33.2 µM. Regarding `CCCCN(CC)C(=O)C(=O)Cc1nc2ccc(C(=O)c3ccccc3)cc2[nH]c1=O`, the TGI was above 100 µM. On to `COC(=O)C1=C(C)NC(=O)N2[C@@H](CCOCc3ccccc3)CC[C@@H]12`, for which the TGI was above 50 µM. Compound `O=c1cc(-c2ccc(F)cc2)[nH]c2ncccc12` displayed a TGI above 100 µM. Still for that read-out and setting: as for `O=[N+]([O-])c1nccn1CC(O)c1ccccc1` (stereo unspecified), the figure is above 100 µM; as for `NCC(=O)Nc1ccccc1`, above 100 µM; as for `OC1CC2CCC(C1)N2CCCN1c2ccccc2Sc2ccc(Cl)cc21` (stereo unspecified), 8.22 µM.

Regarding `Cc1ccc(OP(=O)(Oc2ccc(C)cc2)N2C=Cc3ccccc3C2C#N)cc1` (stereo unspecified), the TGI was above 100 µM. Compound `O=C(O)c1nc2cc(Cl)ccc2[nH]c1=O` gave a TGI above 100 µM. The compound `Cc1cccc(-c2nnc3s/c(=C\c4ccc(N(C)C)cc4)c(=O)n23)c1` had a TGI above 100 µM.

`Nc1nc(=O)n(C2CCC(CO)O2)cc1F` (stereo unspecified) came in with a TGI above 100 µM. In the case of `CCCn1cc2c(=O)[nH]c(SC)nc2n1`, the TGI was above 100 µM. Take `COc1ccc(N2C(=O)C3CC(c4ccc(Br)cc4)c4c([nH]c5ccccc45)C3C2=O)cc1` (stereo unspecified): the TGI was 75.3 µM. Turning to `CSc1ccc(C2=NN(C(C)=O)C(c3ccc(-c4cc(Cl)c(Cl)cc4Cl)o3)C2)cc1` (stereo unspecified), the GI50 was 18.8 µM and the TGI is 39.9 µM.
